Assay results as given in US20250313638A1 (KISOJI BIOTECHNOLOGY, published 2025).

Columns and labels:
[1] = biological target: T1, human Dopamine Receptor D2 presented on proteoliposomes (human, UniProt P14416 1-443, limits assumed); assay: ELISA: D2 proteoliposomes coated on the plate; KC020 not stressed
T1 construct: also called D2 proteoliposomes; human D2 presenting proteoliposomes
Method: (§1) Plates were covered and left at 4° C. overnight. The next day, plates were washed once with PBS and blocked with blocking buffer for 1 hour at room temperature. […] After incubation, plates were washed three times with washing buffer. Plates were incubated with anti-human-Fc-HRP (Sigma-Aldrich, Cat. No. AP113P) diluted at 1:5000 for 1 hour at room temperature, then washed three times with PBS-T washing buffer. The signal was developed with SuperSignal™ ELISA Pico Chemiluminescent Substrate (Thermofisher, Cat. No. 37069). The plates were read on a SpectraMax™ i3x Multi-Mode Microplate Reader (Molecular Devices).

[2] = biological target: T1, human Dopamine Receptor D2 presented on …; assay: as above; remark: listed apart in the source
Method: as §1

[3] = biological target: T2, recombinant human PD-1 protein (human, UniProt Q15116 fragment); assay: ELISA: recombinant human PD-1 coated on the plate; KC020 not stressed
T2 construct: Bought (Cedarlane Cat. No. HPLC-10377-H08H-100); also called human recombinant PD1 protein; PD-1 recombinant protein
Method: (§2) Briefly, recombinant proteins were coated on 96-well plates. Plates were covered and left at 4° C. overnight. The next day, plates were washed once with PBS and blocked with blocking buffer for 1 hour at room temperature. Binding agents were tested at the indicated concentration (357 nM starting concentration, followed by 12 one in four serial dilutions for FIG. 9B lower panel), diluted in the blocking buffer, and incubated for 1 hour at 37° C. After incubation, plates were washed three times with washing buffer. Plates were incubated with anti-human-Fc-HRP (Sigma-Aldrich, Cat. No. AP113P) diluted at 1:5000 for 1 hour at room temperature, then washed three times with PBS-T washing buffer. The signal was developed with SuperSignal™ ELISA Pico Chemiluminescent Substrate (Thermofisher, Cat. No. 37069). The plates were read on a SpectraMax™ i3x Multi-Mode Microplate Reader (Molecular Devices).

[4] = biological target: T3, recombinant human CD47 protein (human, UniProt Q08722 fragment); assay: ELISA: recombinant human CD47 coated on the plate; KC020 not stressed
T3 construct: Bought (Cedarlane Cat. No. 12283-H08H-200); also called human recombinant CD47 protein; CD47 recombinant protein
Method: as §2

[5] = biological target: T2, recombinant human PD-1 protein; assay: ELISA: recombinant human PD-1 coated on the plate; KC020 not stressed; remark: listed apart in the source
T2 sequence (Q15116 25-167 limits assumed): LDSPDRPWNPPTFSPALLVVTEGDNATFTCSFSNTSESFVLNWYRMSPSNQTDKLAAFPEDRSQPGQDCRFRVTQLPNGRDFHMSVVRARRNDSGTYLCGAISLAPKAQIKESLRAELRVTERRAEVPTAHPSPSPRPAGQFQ
Method: as §2

[6] = biological target: T3, recombinant human CD47 protein; assay: ELISA: recombinant human CD47 coated on the plate; KC020 not stressed; remark: listed apart in the source
T3 sequence (Q08722 19-139 limits assumed): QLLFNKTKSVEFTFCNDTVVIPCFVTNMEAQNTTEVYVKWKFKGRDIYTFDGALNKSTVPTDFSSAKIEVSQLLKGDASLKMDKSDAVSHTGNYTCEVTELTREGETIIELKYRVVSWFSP
Method: as §2

[7] = biological target: T1, human Dopamine Receptor D2 presented on …; assay: ELISA: D2 proteoliposomes coated on the plate; KC020 after 2 weeks at 40 C
Method: as §1

[8] = biological target: T1, human Dopamine Receptor D2 presented on …; assay: ELISA: D2 proteoliposomes coated on the plate; KC020 after pH 3.5 for 4 hours
Method: as §1

[9] = biological target: T2, recombinant human PD-1 protein; assay: ELISA: recombinant human PD-1 coated on the plate; KC020 after 2 weeks at 40 C
Method: as §2

[10] = biological target: T3, recombinant human CD47 protein; assay: ELISA: recombinant human CD47 coated on the plate; KC020 after 2 weeks at 40 C
Method: as §2

[11] = biological target: T1, human Dopamine Receptor D2 presented on …; assay: ELISA: D2 proteoliposomes coated on the plate; KC020 after pH 3.5 for 48 hours
Method: as §1

[12] = biological target: T1, human Dopamine Receptor D2 presented on …; assay: ELISA: D2 proteoliposomes coated on the plate; KC020 after agitation for 3 days
Method: as §1

[13] = biological target: T2, recombinant human PD-1 protein; assay: ELISA: recombinant human PD-1 coated on the plate; KC020 after pH 3.5 for 4 hours
Method: as §2

[14] = biological target: T3, recombinant human CD47 protein; assay: ELISA: recombinant human CD47 coated on the plate; KC020 after pH 3.5 for 4 hours
Method: as §2

[15] = biological target: T1, human Dopamine Receptor D2 presented on …; assay: ELISA: D2 proteoliposomes coated on the plate; KC020 after five freeze-thaw cycles
Method: as §1

[16] = biological target: T2, recombinant human PD-1 protein; assay: ELISA: recombinant human PD-1 coated on the plate; KC020 after pH 3.5 for 48 hours
Method: as §2

[17] = biological target: T3, recombinant human CD47 protein; assay: ELISA: recombinant human CD47 coated on the plate; KC020 after pH 3.5 for 48 hours
Method: as §2

[18] = biological target: T2, recombinant human PD-1 protein; assay: ELISA: recombinant human PD-1 coated on the plate; KC020 after agitation for 3 days
Method: as §2

[19] = biological target: T3, recombinant human CD47 protein; assay: ELISA: recombinant human CD47 coated on the plate; KC020 after agitation for 3 days
Method: as §2

[20] = biological target: T2, recombinant human PD-1 protein; assay: ELISA: recombinant human PD-1 coated on the plate; KC020 after five freeze-thaw cycles
Method: as §2

[21] = biological target: T3, recombinant human CD47 protein; assay: ELISA: recombinant human CD47 coated on the plate; KC020 after five freeze-thaw cycles
Method: as §2

Measured: EC50 (read off the curve)

T1 sequence (P14416 whole entry): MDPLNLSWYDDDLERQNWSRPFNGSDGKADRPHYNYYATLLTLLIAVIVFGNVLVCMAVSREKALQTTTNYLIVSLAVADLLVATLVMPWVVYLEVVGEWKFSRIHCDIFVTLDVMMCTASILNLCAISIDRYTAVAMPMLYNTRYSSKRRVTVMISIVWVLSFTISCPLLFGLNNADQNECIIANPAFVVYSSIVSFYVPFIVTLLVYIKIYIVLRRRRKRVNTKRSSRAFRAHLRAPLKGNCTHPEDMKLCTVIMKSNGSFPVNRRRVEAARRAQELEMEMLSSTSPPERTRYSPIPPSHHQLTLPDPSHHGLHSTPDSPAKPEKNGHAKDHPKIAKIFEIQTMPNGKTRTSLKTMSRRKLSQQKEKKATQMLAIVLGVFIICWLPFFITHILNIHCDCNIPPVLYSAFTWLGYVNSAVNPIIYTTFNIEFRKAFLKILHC

B1: KC020 (Fc fusion)
chain: QVQLQESGGGLVQAGGSLRLSCAASEIIFSITAMNWYRQAPGKQRELVAGISSSGKITYQDSVKGRFTISKDNAKNTLYLQMNSLKPEDTAVYYCNTWAGARDAIWGQGTQVTVSS[gap - human IgG1 Fc]APAPAPAPAPKAQVQLQESGGGWVQPGGSLRLSCVASGFTFSRSSMSWHRQAPGKERDLVAIISSSGIITHYSDSVKGRFTISRDNAKDTVYLQMNSLKPEDTAVYVCNAVLDDDSGDYWGQGTQVTVSSGGGGSGGGGSGGGGSQVQLQESGGGLVQPGGSLRLSCAASRFDFSVNDIRWYRQAPGNERELVARITGGGRTDYADSVKGRFTISRDNAKNTVYLQMNNLKPEDTAVYYCWGRGYWGQGTQVTVSS
notes: KC001 VHH, human IgG1 hinge-CH2-CH3, rigid linker, KC009 VHH, flexible linker, KC010 VHH; May comprise a His-tag or not; also called (DR2)
~0.2 nM: [3] | [4] | [5] | [9] | [10] | [14] | [16] | [19] | [21]
~0.3 nM: [6] | [17]
~0.1 nM: all other assays above
